Assay results as given in PubChem BioAssay AID1347165 (National Center for Advancing Translational Sciences (NCATS), 2019).
Values joined by “and” are separate entries in the source; they are usually repeats but may differ in a detail not shown here. Equal entries are not always repeated. In all, about 220,000 compounds went through this assay and about 5,700 (2.6%) were called active. The shares of active, inactive and inconclusive entries below differ from those in the screen. Calls follow the shape of the dose curve; as a rule, active = well fitted inhibition curve with a large enough effect; inconclusive = small, poorly fitted or top-dose-only effect; inactive = no such curve, though single readings can be large or run the other way. A potency beside an inconclusive call is a rough fit, not a confirmed value.

Biological target: Lysine-specific demethylase 5B (Homo sapiens) (UniProt Q9UGL1)
UniProt Q9UGL1, sequence (Q9UGL1 whole entry, looked up): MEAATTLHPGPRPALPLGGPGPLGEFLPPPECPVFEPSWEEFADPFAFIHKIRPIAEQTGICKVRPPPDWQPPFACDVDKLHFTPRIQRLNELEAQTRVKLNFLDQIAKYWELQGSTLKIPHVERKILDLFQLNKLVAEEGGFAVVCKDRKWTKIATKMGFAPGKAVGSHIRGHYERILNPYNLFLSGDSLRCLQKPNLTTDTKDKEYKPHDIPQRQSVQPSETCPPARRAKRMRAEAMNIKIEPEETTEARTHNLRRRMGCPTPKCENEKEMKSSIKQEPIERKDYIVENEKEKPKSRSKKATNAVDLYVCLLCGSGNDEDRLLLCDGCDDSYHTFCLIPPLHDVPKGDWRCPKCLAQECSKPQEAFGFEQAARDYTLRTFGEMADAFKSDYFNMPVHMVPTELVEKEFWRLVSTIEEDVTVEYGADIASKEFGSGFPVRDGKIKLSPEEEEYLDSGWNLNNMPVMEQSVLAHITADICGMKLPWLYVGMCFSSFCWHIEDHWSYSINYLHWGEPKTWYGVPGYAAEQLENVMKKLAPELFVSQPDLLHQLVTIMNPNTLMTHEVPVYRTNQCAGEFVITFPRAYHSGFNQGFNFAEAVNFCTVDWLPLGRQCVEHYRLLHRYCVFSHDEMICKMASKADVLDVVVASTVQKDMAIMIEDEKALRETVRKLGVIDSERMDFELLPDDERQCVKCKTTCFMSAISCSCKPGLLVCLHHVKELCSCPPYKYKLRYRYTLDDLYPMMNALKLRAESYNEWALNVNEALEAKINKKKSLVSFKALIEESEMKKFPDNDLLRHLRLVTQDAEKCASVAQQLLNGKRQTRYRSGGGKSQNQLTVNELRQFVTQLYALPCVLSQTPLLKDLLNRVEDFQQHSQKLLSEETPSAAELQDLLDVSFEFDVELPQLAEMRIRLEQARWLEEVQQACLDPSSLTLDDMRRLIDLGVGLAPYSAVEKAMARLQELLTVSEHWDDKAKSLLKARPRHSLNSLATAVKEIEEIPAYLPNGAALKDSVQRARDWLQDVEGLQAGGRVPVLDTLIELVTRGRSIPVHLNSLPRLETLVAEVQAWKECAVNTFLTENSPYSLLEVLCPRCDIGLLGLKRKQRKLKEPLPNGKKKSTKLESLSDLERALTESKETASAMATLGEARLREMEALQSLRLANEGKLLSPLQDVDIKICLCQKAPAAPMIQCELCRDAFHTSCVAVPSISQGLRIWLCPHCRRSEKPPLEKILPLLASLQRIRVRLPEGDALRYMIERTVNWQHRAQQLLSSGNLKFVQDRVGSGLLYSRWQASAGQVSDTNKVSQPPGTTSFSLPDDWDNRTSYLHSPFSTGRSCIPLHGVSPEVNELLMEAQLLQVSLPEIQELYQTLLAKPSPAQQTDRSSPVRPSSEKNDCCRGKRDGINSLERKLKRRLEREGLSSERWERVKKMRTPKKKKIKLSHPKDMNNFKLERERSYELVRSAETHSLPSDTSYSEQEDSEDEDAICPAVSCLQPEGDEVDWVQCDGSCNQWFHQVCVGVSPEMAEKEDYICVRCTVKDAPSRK
Test: Primary screen for KDM5B Histone Demethylases FDH-coupled qHTS; also: nearly all actives have a fitted effect of over 70% in size; as to activity change, negative = inhibition: 0% is about no effect
Conditions: FDH-coupled NADH fluorescence (FDH is formaldehyde dehydrogenase); activity change, negative = inhibition: at 57.7 µM (top of the series) unless noted
How it was run: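 Compound dilutions met 200 nM (final) KDM5BΔAP for 10 min at room temperature before substrate addition. The substrate mix held 12.5 µM H3K4me3 with cofactors 25 µM α-ketoglutarate and 50 µM Fe²⁺. NADH signal gain over 30 min defined activity.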
Potency is read from the fitted curve at half-maximal effect; tags tell the direction and shape of the fitted curve.

Row | SMILES | Potency | activity change, negative = inhibition
1 | CC(=O)Nc1cccc(-c2nc(-c3c(C)noc3C)cc3c2cc(-c2ccccc2)n3C)c1 | active: 35.5 µM | 
2 | COc1ccc(OCC(=O)Nc2ccc(-c3nc4cc(C)c(C)cc4o3)cc2)cc1 | inconclusive: 5.62 µM [inhibitor, partial curve, poor fit] and inconclusive: 1.78 µM [inhibitor, full curve, poor fit] | 
3 | C=CCNC(=O)N[C@H]1CCN2C(=O)c3cc(-c4ccccc4F)ccc3NC(=O)[C@@H]2C1 | inconclusive: 31.6 µM [inhibitor, single point] | 
4 | CCCCOCCCNC(=O)Cn1cnc2c1c(=O)n(C)c(=O)n2C |  | inactive: -2.64%
5 | Cc1c(C(=O)N2CCC(C)CC2)c(S(=O)(=O)Nc2ccc(OC(F)(F)F)cc2)c(C)n1C |  | inactive: -1.12%
6 | CCC(CO)NS(=O)(=O)c1ccc(Cl)c(Cl)c1Cl (stereo unspecified) |  | inactive: 25.5%
7 | COc1ccccc1N1CCN([C@@H]2[C@H](O)[C@H](CO)O[C@@H]2CNC(=O)Nc2ccccc2)CC1 | inconclusive: 15.8 µM [inhibitor, partial curve, poor fit] | 
8 | O=C(CCC1CCN(c2cc(NC3CC3)ncn2)CC1)NCc1ccc(F)cc1F |  | inactive: 19.6%
9 | S=C(c1ccc(-c2ccc(Br)cc2)o1)N1CCOCC1 | inconclusive: 22.4 µM [inhibitor, partial curve, poor fit] | 
10 | Cc1cc(=O)oc2c(C)c(OCC(=O)NCCCN(C)C)ccc12 | inconclusive: 22.4 µM [inhibitor, partial curve, poor fit] | 
11 | OCc1ccc(CN2C[C@H](O)C[C@H]2c2nc(-c3cccnc3)no2)o1 | inconclusive: 28.2 µM [inhibitor, single point] | 
12 | Cc1cc(=O)n(CC(=O)Nc2ccc(Br)cc2)c(N2CCc3ccccc3C2)n1 | inconclusive: 14.1 µM [inhibitor, partial curve] | 
13 | CN(C)C[C@@H]1CN(S(C)(=O)=O)C[C@H]1NC(=O)c1cc2ccccc2[nH]1 | active: 31.6 µM | 
14 | Cc1cccc(-n2cc(CN3C[C@@H](NS(C)(=O)=O)[C@H](C(C)C)C3)cn2)c1 | inconclusive: 28.2 µM [inhibitor, single point] | 
15 | Cc1ccc(NS(=O)(=O)c2ccc(NC(=O)N3CCCCC3)cc2)cc1 |  | inactive: 8.21%
16 | CCN1c2cc(C(=O)Nc3cccc(Cl)c3)ccc2C(=O)N2CCCCCC21 (stereo unspecified) | inconclusive: 25.1 µM [inhibitor, partial curve, poor fit] | 
17 | COc1ccc(-c2cc(C(=O)NC3CC3)c3c(C4CCCN4)nn(C)c3n2)cc1 (stereo unspecified) | inconclusive: 56.2 µM [inhibitor, partial curve, poor fit] | 
18 | Cc1cc(C)cc(C(=O)C(C#N)C(=O)NC2CCCCC2)c1 (stereo unspecified) |  | inactive: 23.2%
19 | CC1(C)CC(C)(O)N(CCc2ccccc2)C(=S)N1 (stereo unspecified) |  | inactive: 31.6%
20 | Cc1cc(NC(=O)c2ccc(NC(=O)CCS(=O)(=O)c3cccs3)cc2)ccc1Br | inconclusive: 31.6 µM [inhibitor, partial curve, poor fit] | 
21 | Cc1ccc(-c2cc(C(=O)O)c3cc(C)ccc3n2)c(C)c1 | inconclusive: 39.8 µM [inhibitor, single point] | 
22 | CN(C)c1nc(N2CCC(O)(c3cccnc3)CC2)ncc1F | inconclusive: 28.2 µM [inhibitor, partial curve, poor fit] | 

Row | SMILES | Potency | activity change, negative = inhibition
23 | CCc1ccc(NC(=O)CSc2nc3ccsc3c(=O)[nH]2)cc1 |  | inactive: 9.84%
24 | O=C(Nc1ccc(C(F)(F)F)cc1)C(Cc1ccccc1)n1cccc1 (stereo unspecified) | inconclusive: 35.5 µM [inhibitor, single point] | 
25 | COc1ccc(-c2ccnc(N[C@H]3CO[C@H]4[C@@H]3OC[C@H]4OC(=O)Nc3ccc(C(C)=O)cc3)n2)cc1 |  | inactive: -19.1%
26 | CCn1c2ccccc2c2cc(C(=O)N3C[C@@H](Oc4ccccc4)C[C@@H]3C(=O)NC)ccc21 | inconclusive: 3.16 µM [inhibitor, partial curve, poor fit] | 
27 | O=C(NCCn1ccn2nc(-c3ccc(F)cc3)cc2c1=O)c1n[nH]c2c1CCCC2 | inconclusive: 14.1 µM [inhibitor, partial curve] | 
28 | Cc1ccc2c(C(=O)NCCc3cccs3)cc(NC(=O)C3CCC3)cc2n1 | inconclusive: 17.8 µM [inhibitor, partial curve] | 
29 | Cc1ccc(NC(=O)C2CCCN2S(=O)(=O)c2ccc3c(c2)n(C)c(=O)c(=O)n3C)cc1C (stereo unspecified) | inconclusive: 39.8 µM [inhibitor, single point] | 
30 | Cc1ccc(N/N=C/c2ccc(C)s2)cc1 |  | inactive: -25.4%
31 | N#Cc1c(-c2ccccc2)cc(-c2cccs2)nc1SCCS(=O)Cc1ccc(Cl)cc1 (stereo unspecified) | inconclusive: 35.5 µM [inhibitor, single point] | 
32 | O=C(c1ccco1)N1CCC(C2CCN(Cc3cccnc3)CC2)C1 (stereo unspecified) |  | inactive: 0.825%
33 | C=CCOc1ccc(/C=C(\C#N)c2nc3cc(C)c(C)cc3[nH]2)cc1OC |  | inactive: 13.3%
34 | CN1CCc2nc(N3CCN(C(=O)CCC4CCCC4)CC3)sc2C1 | inconclusive: 15.8 µM [inhibitor, single point] | 
35 | Cc1cc(CC(C)NC(=O)Cc2c(C)[nH]c3ccccc23)n[nH]1 (stereo unspecified) |  | inactive: -10.7%
36 | COc1ccc(N(C(=O)c2snc(C(N)=O)c2N)C(C(=O)NC2CCCC2)c2ccc(C)o2)c(OC)c1 (stereo unspecified) | inconclusive: 25.1 µM [inhibitor, single point] | 
37 | Cc1noc(C)c1-c1cc(-c2cccc3cc[nH]c23)cn2cncc12 | inconclusive: 5.01 µM [inhibitor, full curve, poor fit] | 
38 | CCN(CC)Cc1ccc(C(=O)NC)o1 |  | inactive: -6.43%
39 | COc1ccc(CNC(=O)CC(C)CC(=O)O)cc1 (stereo unspecified) |  | inactive: 19.7%
40 | Cc1ccc(NC(=O)N2CC[C@@H]3C(=O)NCCCCCCN(Cc4ccncc4)[C@@H]3C2)cc1C | inconclusive: 25.1 µM [inhibitor, single point] | 
41 | NC(=O)[C@@H]1CCCN1CC[C@H]1CN(C(=O)c2ccnc(Cl)c2)CC[C@H]1CC(=O)O |  | inactive: -22.9% [at 86.2 µM]
42 | O=C(c1nc(-c2ccsc2)c2cnccn12)N1CCOCC1 | active: 35.5 µM | 
43 | CC(C)NC(=O)COc1ccc(/C=N/NC(=O)C(C)SCc2ccccc2)cc1 (stereo unspecified) |  | inactive: 14.7%
44 | CC(C)c1ccc(CNc2n[nH]c(-c3ccco3)n2)cc1 | inconclusive: 2.51 µM [inhibitor, full curve, poor fit] | 

Row | SMILES | Potency | activity change, negative = inhibition
45 | COCCNC(=O)C1=CC(c2ccc3c(c2)OCO3)=NS(=O)(=O)N1C | inconclusive: 8.91 µM [inhibitor, partial curve, poor fit] | 
46 | COc1ccc(C2c3c(n(C)c4ccccc34)C(=O)N2CC(=O)Nc2ccc(F)cc2)cc1 (stereo unspecified) | inconclusive: 28.2 µM [inhibitor, partial curve, poor fit] | 
47 | Cc1ccc(C(=O)c2oc3ccccc3c2NC(=O)Cc2ccccc2)cc1 | inconclusive: 2 µM [inhibitor, partial curve, poor fit] | 
48 | CCc1ccc(NCc2cc3ccc(OC)cc3n(CC(=O)Nc3ccc(C)c(Cl)c3)c2=O)cc1 | inconclusive: 3.55 µM [inhibitor, full curve, poor fit] | 
49 | Cc1noc(C)c1Cc1ccc(C(=O)N2CCCCCCNC(=O)[C@@H]3CCCC[C@@H]32)o1 |  | inactive: -9.48%
50 | CCOc1ccc(C(=O)OCc2ncc(-c3ccccc3)o2)cc1 |  | inactive: 8.78%
51 | COc1ccc2nc(Nc3nc(C)cc(C)n3)nc(C)c2c1 | inconclusive: 11.2 µM [inhibitor, partial curve, poor fit] | 
52 | CCn1ccc(C(=O)N2CC(Oc3ccc(-c4nc(-c5ccccc5)no4)cc3)C2)n1 |  | inactive: -13.2%
53 | CCOc1ccc2oc(=O)cc(CN3CCN(c4ccccc4OC)CC3)c2c1 | inconclusive: 17.8 µM [inhibitor, partial curve, poor fit] | 
54 | COc1cccc(NC(=O)Cn2c(=O)n(CCc3ccc(OC)c(OC)c3)c(=O)c3ccccc32)c1 | inconclusive: 28.2 µM [inhibitor, partial curve, poor fit] | 
55 | Cc1cn2nc(C(=O)NCc3ccco3)cc2c(=O)[nH]1 | inconclusive: 31.6 µM [inhibitor, partial curve, poor fit] | 
56 | CC1=C(C(=O)Nc2ccccc2)C(c2cc(C)ccc2C)N2C(CC(=O)NC(C)C)=CSC2=N1 (stereo unspecified) | inconclusive: 20 µM [inhibitor, partial curve, poor fit] | 
57 | CCNC(=O)[C@@H]1C[C@H](NC(=O)c2ccc(CO)o2)CN1Cc1nccs1 |  | inactive: -4%
58 | Cc1nnc(CSc2nnc(-c3ccc(Br)cc3)n2CCc2ccccc2)o1 |  | inactive: 2.89%
59 | N#Cc1cccc(N2CCN(Cc3ccc(F)c(Cl)c3F)CC2)n1 | inconclusive: 31.6 µM [inhibitor, partial curve, poor fit] | 
60 | COC(=O)C1CCN(c2csc3ccc(Cl)cc3c2=O)CC1 | inconclusive: 22.4 µM [inhibitor, partial curve, poor fit] | 
61 | O=C(NCC1Cn2cccc2CN1Cc1ccccc1)c1n[nH]c2ccccc12 (stereo unspecified) | active: 14.1 µM | 
62 | O=C(Nc1ccn(Cc2ccc(F)cc2Cl)n1)c1nc2ncccn2n1 |  | inactive: -9.88%
63 | Cc1ccc(S(=O)(=O)N2CCN(c3nc(CN4CCCC4)nc4sc(C)c(C)c34)CC2)cc1 | inconclusive: 22.4 µM [inhibitor, partial curve, poor fit] | 
64 | O=C(NCCCO)c1nn(-c2ccc(Cl)cc2)nc1CO | inconclusive: 17.8 µM [inhibitor, partial curve, poor fit] | 
65 | Cc1ccc(C(=O)N[C@@H]2CN(c3ncccn3)C[C@H]2CO)nc1 | active: 20 µM | 
66 | NC(=O)C1(C(=O)N2C[C@@H](C(=O)O)[C@H](c3ccc4c(c3)OCO4)C2)CC1 |  | inactive: 19.1%
